{"source": "PubChem BioAssay AID1469", "about": "(National Center for Advancing Translational Sciences (NCATS), 2008)", "note": "Out of some 280,000 compounds screened, about 180 (0.064%) were called active. Calls follow the shape of the dose curve; as a rule, active = well fitted inhibition curve with a large enough effect; inconclusive = small, poorly fitted or top-dose-only effect, or effect the other way; inactive = flat fitted curve, though single readings scatter. Only a part is listed here, and it is no random draw. Where a structure was tested more than once in an assay, its records may differ in their call. Potency is read from the fitted curve at half-maximal effect.", "data": [{"target": "Thyroid hormone receptor beta (Homo sapiens) (UniProt P10828)", "sequence (P10828 whole entry, looked up)": "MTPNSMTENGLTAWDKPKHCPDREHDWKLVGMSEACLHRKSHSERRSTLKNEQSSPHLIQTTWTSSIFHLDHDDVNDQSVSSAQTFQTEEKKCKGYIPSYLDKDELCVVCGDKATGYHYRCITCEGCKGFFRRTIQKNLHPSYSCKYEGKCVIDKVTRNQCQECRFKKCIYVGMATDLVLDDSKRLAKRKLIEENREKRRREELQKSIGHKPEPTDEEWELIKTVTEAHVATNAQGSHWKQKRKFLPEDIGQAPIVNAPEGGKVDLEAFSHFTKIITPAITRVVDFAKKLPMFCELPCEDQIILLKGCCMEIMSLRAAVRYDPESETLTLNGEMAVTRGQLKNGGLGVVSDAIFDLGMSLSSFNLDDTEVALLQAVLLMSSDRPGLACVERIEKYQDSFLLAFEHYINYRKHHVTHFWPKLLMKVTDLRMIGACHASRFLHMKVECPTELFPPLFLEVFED", "test": "qHTS for Inhibitors of the Interaction of Thyroid Hormone Receptor and Steroid Receptor Coregulator 2; also: nearly all actives have a fitted effect of over 50% in size;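 as to activity change, negative = inhibition: plate controls were bound peptide for no effect and peptide without receptor for full effect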", "details": "TRbeta-SRC2 peptide binding, fluorescence polarization, receptor liganded with 1 µM T3; series mostly up to 106 µM; activity change, negative = inhibition: at the top concentration", "excerpt": "NIH Molecular Libraries Probe Production Network [MLPCN]\nNIH Chemical Genomics Center [NCGC]\nAssay Provider: R. Kip Guy, St. Jude Children's Research Hospital\nThyroid receptor (TR) regulates many homeostatic processes including basal metabolism, cardiovascular function, body weight, and lipid trafficking. TR modulators are potential therapeutics for obesity and hyperlipidemias but current thyroid analogs have undesirable side effects, particularly cardiac stimulation. To identify inhibitors that specifically prevent the interaction of TR with the steroid receptor coregulator 2 (SRC2), a fluorescence polarization assay was screened. This assay detects interaction of the ligand-binding domain of human TRb with a Texas Red labeled SRC2 peptide, corresponding to a 20 amino acid region of the nuclear receptor interaction domain (Arnold et al., 2006). Small molecule inhibitors that block the interaction of TR and SRC2 are detected by a decrease in fluorescence polarization.\nArnold, L. A.; Estebanez-Perpina, E.; Togashi, M.; Shelat, A.; Ocasio, C. A.; McReynolds, A. C.; Nguyen, P.; Baxter, J. D.; Fletterick, R. J.; Webb, P.; Guy, R. K. A high-throughput screening method to identify small molecule inhibitors of thyroid hormone receptor coactivator binding. Sci STKE 2006, p 13.\nNCGC Assay Protocol Summary:\nFor screening, 5 uL/well 0.6 uM TRb and 20 nM SRC2 Texas Red in protein buffer (20mM Tris hydrochloride, 100mM NaCl, 10% glycerol, 1mM EDTA, 0.01% NP-40, 1mM DTT, 1uM T3 and 5% DMSO) was dispensed into black solid 1536-well plates (Grenier) using a solenoid-based dispenser. Following transfer of 23 nL compound or DMSO vehicle by a pin tool, the plates were centrifuged 15 s at 1000 RPM and incubated 5 hr at ambient temperature. The plates were read by an Envision (Perkin Elmer) to detect fluorescence polarization of SRC2 Texas Red (555 nm excitation and 632 nm emission). Data were normalized to unbound (all components except TRb) and bound SRC2 Texas Red controls. In this assay, we provide % activity data for each concentration as well as potencies for the active compounds.\nKeywords: NIH Roadmap, MLPCN, MLI, MLSMR, qHTS, NCGC, qHTS, thyroid hormone receptor, steroid receptor coactivator, fluorescence polarization", "values": [{"smiles": "Nc1cc(C(=O)O)c(N)c2c1C(=O)c1ccccc1C2=O", "Potency": "active: 39.8 µM"}, {"smiles": "COc1ccccc1-c1cc(C(=O)NCCc2ccccc2)no1", "activity change, negative = inhibition": "inactive: 3.93%"}, {"smiles": "S=C(S)NCCNC(=S)S", "activity change, negative = inhibition": "inactive: -3.84% [at 201 µM]"}, {"smiles": "NC(=O)c1cc(N)ccc1N1CCCC1", "Potency": "active: 39.8 µM"}, {"smiles": "O=C(COC(=O)c1c(F)cccc1F)c1ccc[nH]1", "Potency": "active: 14.1 µM"}, {"smiles": "COc1ccc(/C=C/C(=O)O)cc1", "Potency": "active: 25.1 µM"}, {"smiles": "N[C@@H](COP(=O)(O)O)C(=O)O", "Potency": "inactive"}, {"smiles": "C[C@H]1[C@@H](O)[C@@H](C)\\C=C/C=C\\C=C/C=C\\C=C/C=C\\C=C/[C@@H](O[C@H]2O[C@@H](C)[C@@H](O)[C@@H](N)[C@@H]2O)C[C@@H]2O[C@](O)(C[C@@H](O)C[C@@H](O)[C@@H](O)CC[C@@H](O)C[C@@H](O)CC(=O)O[C@H]1C)C[C@@H](O)[C@H]2C(=O)O", "note": "(stereo in doubt)", "activity change, negative = inhibition": "inactive: -15.9% [at 53 µM]"}, {"smiles": "O=C(O)CCCC[C@@H]1CCSS1", "Potency": "inactive"}, {"smiles": "CCc1ccc(NC(=O)c2cc(-c3cccs3)on2)cc1", "activity change, negative = inhibition": "inactive: 3.71%"}, {"smiles": "C[C@@H]1[C@H](O)[C@@H](C)/C=C/C=C/C=C/C=C/C=C/C=C/C=C/[C@H](O[C@@H]2O[C@H](C)[C@@H](O)[C@H](N)[C@@H]2O)C[C@@H]2O[C@](O)(C[C@@H](O)C[C@@H](O)[C@H](O)CC[C@@H](O)C[C@@H](O)CC(=O)O[C@H]1C)C[C@H](O)[C@H]2C(=O)O", "activity change, negative = inhibition": "inactive: 1.66%"}, {"smiles": "COc1ccc(/C=C/C(=O)CC(=O)/C=C/c2cccc(O)c2OC)cc1O", "activity change, negative = inhibition": "inactive: 27.3%"}, {"smiles": "Nc1cc(-c2ccncc2)c[nH]c1=O", "Potency": "inactive"}, {"smiles": "O=C(O)CCCCC1CCSS1", "note": "(stereo unspecified)", "Potency": "inactive"}, {"smiles": "CCCCCCCCCCCCCCSCC(=O)O", "Potency": "inactive"}, {"smiles": "COc1ccc(C2=CC3=C(Br)C(=O)C(C)(OC(=O)C4CCCC4)C(=O)C3=CO2)cc1", "note": "(stereo unspecified)", "activity change, negative = inhibition": "inactive: 3.89%"}, {"smiles": "COc1cc(/C=C/C(=O)CC(=O)/C=C/c2ccc(O)c(OC)c2)ccc1O", "Potency": "inactive"}, {"smiles": "O=C1C(SCCO)=C(SCCO)C(=O)c2ccccc21", "Potency": "inactive"}, {"smiles": "CC1=C(/C=C/C(C)=C/C=C/C(C)=C\\C(=O)O)C(C)(C)CCC1", "Potency": "inactive"}, {"smiles": "NCCOB(c1ccccc1)c1ccccc1", "Potency": "inactive"}, {"smiles": "Cc1ccc(C2CC(=O)Oc3cc(O)ccc32)cc1", "note": "(stereo unspecified)", "activity change, negative = inhibition": "inactive: 0.028%"}, {"smiles": "CC1=C(/C=C/C(C)=C\\C=C\\C(C)=C\\C(=O)O)C(C)(C)CCC1", "Potency": "inactive"}, {"smiles": "O=C(O)[C@H]1CN(CCCP(=O)(O)O)CCN1", "activity change, negative = inhibition": "inactive: -4.18%"}, {"smiles": "Oc1ccc(NCc2cccc(OCc3ccc(F)cc3)c2)cc1", "Potency": "active: 11.2 µM"}, {"smiles": "CC1=C(CCC(=O)O)c2cc3nc(cc4[nH]c(cc5[nH]c(cc1n2)c(C)c5C(C)O)c(C)c4C(C)O)C(C)=C3CCC(=O)O", "note": "(stereo unspecified)", "Potency": "active: 35.5 µM"}, {"smiles": "CN(C)[C@H]1C(=O)C(C(=O)NCN2CCCC2)=C(O)[C@]2(O)C(=O)C3=C(O)c4c(O)cccc4[C@@](C)(O)[C@H]3C[C@@H]12", "activity change, negative = inhibition": "inactive: -6.8% [at 53 µM]"}, {"smiles": "COC1C=CO[C@@]2(C)Oc3c(C)c(O)c4c(O)c(c5c(nc6cc(C)ccn65)c4c3C2=O)NC(=O)/C(C)=C\\C=CC(C)C(O)[C@@H](C)C(O)C(C)[C@@H](OC(C)=O)C1C", "note": "(stereo partly specified)", "activity change, negative = inhibition": "inactive: -5.07%"}, {"smiles": "CC(C)CCN(C(=O)Nc1ccccc1)C(C)c1cccs1", "note": "(stereo unspecified)", "activity change, negative = inhibition": "inactive: 3.37%"}, {"smiles": "CCn1c(CSc2n[nH]c(N)n2)nc2cc(C(=O)O)ccc21", "Potency": "active: 28.2 µM"}, {"smiles": "CCCCC1=CC2=CC(=O)C(C)(OC(=O)c3cnc4ccccc4n3)C(=O)C2=CO1", "note": "(stereo unspecified)", "activity change, negative = inhibition": "inactive: -1.36%"}, {"smiles": "O=C1OC2(c3cc(I)c(O)c(I)c3Oc3c2cc(I)c(O)c3I)c2c(Cl)c(Cl)c(Cl)c(Cl)c21", "Potency": "active: 25.1 µM"}, {"smiles": "CCOC(=O)N1CCN(c2cc(NCCC(=O)O)c3c4c(onc24)-c2ccccc2C3=O)CC1", "Potency": "active: 28.2 µM"}, {"smiles": "Cc1cc(C)cc(OCC(=O)NCCc2nc3ccccc3[nH]2)c1", "activity change, negative = inhibition": "inactive: 3.69% [at 53 µM]"}, {"smiles": "O=C(O)CCCCCN1C(=O)/C(=C\\c2ccncc2)SC1=S", "activity change, negative = inhibition": "inactive: 8.76%"}, {"smiles": "O=C1c2ccc(O)c(O)c2C(=O)c2c(O)ccc(O)c21", "Potency": "active: 25.1 µM"}, {"smiles": "Oc1c(Cl)cc(Cl)c(Cl)c1Cc1c(O)c(Cl)cc(Cl)c1Cl", "Potency": "inactive"}, {"smiles": "CCOc1cc(CNc2ccc(O)cc2)ccc1OCc1ccc(Cl)cc1Cl", "Potency": "active: 28.2 µM"}, {"smiles": "CN(C(=S)Nc1cccnc1)c1ccc(O)cc1", "Potency": "active: 35.5 µM"}, {"smiles": "CC1=C(/C=C/C(C)=C/C=C/C(C)=C/C(=O)O)C(C)(C)CCC1", "Potency": "inactive"}, {"smiles": "CCN(CC)c1ccc(N=Cc2cc(Br)ccc2O)cc1", "Potency": "active: 50.1 µM"}, {"smiles": "N[C@H](COP(=O)(O)O)C(=O)O", "activity change, negative = inhibition": "inactive: -4.4%"}]}]}
